From the supplement of paper PMC10126150 come the findings set out here.

Sequences with one replicate were seen in a single cluster, so their values are uncertain.

The data set has as its system ATP. In words: switch fluorescence ratio, 500 uM ATP over buffer (Cy3 cluster intensity, sum of 5 cycles each) (fold (ratio)); higher = stronger signal-on switching upon ATP binding; sequences stand for … in TCGTCGGCAGCGTCAGATGTGTATAAGAGACAGTTTTTTTTTTTTTTTTTTTTTTTTT…TC. Particulars: aptamer strand: ATP DNA aptamer (quencher-CACCTGGGGGAGTATTGCGGAGGAAGG + anchor), 100 nM annealed; ATP concentration: 500 uM; one replicate. The method in brief: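 Between each of five buffer/ATP cycles, the flow-cell was stripped with NaOH and re-annealed. Each cycle imaged Cy3-labelled switching-strand clusters, annealed to 100 nM quencher-labelled ATP aptamer on a modified Illumina MiSeq flow-cell, first in selection buffer and then after 15 min with 500 uM ATP at 22 °C. The fluorescence ratio is summed target-cycle over summed buffer-cycle Cy3 intensity per cluster, averaged per switch-domain sequence, with clusters outside 100-1000 RFU excluded.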
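Further: ATP exposure 15 min at 22 °C before imaging.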

Turning to CACACCGTGA, the switch fluorescence ratio was 1.02.

For GGAACTATTA, the switch fluorescence ratio amounted to 1.02. TTGATCAAT: the switch fluorescence ratio came out at 1.01.

Regarding TCTATTTGTT, the switch fluorescence ratio is 0.965. Turning to GCAGTGTGGG, the switch fluorescence ratio was found to be 1.01. Then TAGCTGCCCT, with 0.976; and ATTCTAAGAG, with 0.993. Consider GGGGCTTTGA, for which the switch fluorescence ratio was 0.999. As for AGCAAGGTCA, the switch fluorescence ratio was 1.09. Consider TTCGTATAAA, for which the switch fluorescence ratio came out at 0.959.

Turning to GGAACGTTAT, the switch fluorescence ratio turned out to be 1.04. The result for TGTTGTAAGG reads 1.06; that for CTTCTAGAG, 1.01; that for ATTGTATCGT, 0.991. Then ATAAGGACTA, with 1.04; and ACTTTGGAAA, with 0.995. Then GAGGAACCGT, with 1.01; and AGGAGTAGGG, with 0.973; and GGCCGTTGTT, with 1. Regarding TCGAATGTTC, the switch fluorescence ratio was determined as 0.973. Then GGTTAACATG, with 1.01. On to AGCTGCAAGT, for which the switch fluorescence ratio was found to be 0.992. Then CGGGGATTGT, with 0.959; and AGTGGCGGGT, with 0.983; and TGAGCTTTCC, with 1.13. The result for AAAGCTTACA reads 1.15; that for GACCACTT, 1.08; that for AGTGCTTGCA, 0.937. Then ACAGATTTA, with 1; and AATTCAAGAT, with 0.985. For CGCCCGGGTC, the switch fluorescence ratio was determined as 1.31. The result for AACGGGGAAT reads 1.01; that for CCATCGTCTG, 1.04. The result for TACTAGGACC reads 1.08; that for TTCTTTCTTT, 1.02.

On to TAATTATATC, for which the switch fluorescence ratio amounted to 0.999. Turning to GTAGGCGGGT, the switch fluorescence ratio came to 1.04. Regarding ACGTCTAGAC, the switch fluorescence ratio came to 1.05. On to ATCTCTAAG, for which the switch fluorescence ratio worked out at 1. The result for CAGTATGGAA reads 0.936.

AGGCTCTTAC: the switch fluorescence ratio amounted to 1.06. The result for TTAGGGAGGC reads 1.03. The result for TAGACGGACA reads 1.19; that for TCAAAAGCTT, 1.04. Then CCCCCCCACG, with 1.78; and TATTTATAA, with 0.982. On to AAACTTGTAT, for which the switch fluorescence ratio was 0.98. As to GGAGGGTTT, the switch fluorescence ratio was 1.22.

As for GCCACTCAGA, the switch fluorescence ratio was 1.01.

With TTCCTCGGTT, the switch fluorescence ratio came out at 1.17.

For the sequence AATTGTTGG, the switch fluorescence ratio came out at 1.09. With ATGGCGGTGC, the switch fluorescence ratio was found to be 1.03. Then ATGGGTCGC, with 0.97.

GACGTTTAAC: the switch fluorescence ratio came out at 1.22. Then ACCTATTAAG, with 1.02; and CGGTAATCG, with 0.996; and GGGCACAGCC, with 0.991. With CTCGTACGAC, the switch fluorescence ratio was determined as 1.11.

In the case of GGGCGGCCCG, the switch fluorescence ratio is 0.938. Then ATAGTTAGCC, with 0.991; and GCCGCCCGGG, with 1.06; and TGCTTAGCTG, with 0.974. The result for ACCCGCCGAC reads 3.43; that for CGGCAAGT, 1.23; that for TGGGCGTCTA, 1.01. Then TAACGGGATA, with 1. Consider GCTTAGGCGA, for which the switch fluorescence ratio was 0.967.

In the case of GCGCTAGGGG, the switch fluorescence ratio amounted to 1.04.

For the sequence TGGTTCCATT, the switch fluorescence ratio was 0.95. Then GTCTCAGGCC, with 0.962. The result for AGACTGCAGG reads 1.04; that for TTCGTTGTA, 1.03. For the sequence GTAGGCGCGC, the switch fluorescence ratio was determined as 1.02. With AAGGCCGTTC, the switch fluorescence ratio was 1.02. The result for ACGGAATGGC reads 1.26; that for CACTGGTAAT, 1.03; that for TGTTATGAA, 1.02. Then GCGTTCGGGG, with 1.04. Then CAAATTTCTG, with 0.962; and CCTTCTTGTG, with 1.05; and AAATATATCG, with 1.02. GGCAGACATT: the switch fluorescence ratio amounted to 1.02. The result for GGGAAGAGCG reads 1.04.

On to CAGCCCATCT, for which the switch fluorescence ratio came out at 0.987. On to TTGACCGCCA, for which the switch fluorescence ratio stood at 1.32. The result for CGCTAAGTTG reads 1.03; that for AGGCAACTCC, 1.24; that for AGCGCGTTGA, 1.09.

As to GTGGCAAGGT, the switch fluorescence ratio came to 0.992. Consider CGCATGGATT, for which the switch fluorescence ratio was 1.03. Then CACCAACGAC, with 1.29; and CTCAGTCCTT, with 0.979.

Consider AAAGCCCATC, for which the switch fluorescence ratio amounted to 0.975.

In the case of AAAGAGAGCG, the switch fluorescence ratio came out at 1.01. On to ATCAGGACT, for which the switch fluorescence ratio was found to be 0.963. Then CAGGTTAGAG, with 1.02; and TACGCCTTCT, with 1.05; and TGAGAGATGG, with 1.04.

As to CAGGACGGAC, the switch fluorescence ratio turned out to be 1.02. The result for CGTGCCAAAC reads 1.22; that for ATTCCTTATC, 1.05; that for CACGTGTGAT, 1.03. Then CGGAGTTGCA, with 1.08; and GAGACTAATG, with 0.955; and TTGGTCTGTC, with 0.965.

As for TTGGAACTGT, the switch fluorescence ratio was 1.05. Then TTGGGAGAGT, with 0.979; and GATAAGGGTT, with 0.986. Then TGCATTCGCG, with 1.03; and GGGACTCTAT, with 1.01. The result for GGGAAGCTGT reads 0.992; that for GACGCGCACT, 1.65; that for TATTCTTATT, 0.998. In the case of TACTAAAGC, the switch fluorescence ratio came out at 0.976. Take TGCAAATAAG: the switch fluorescence ratio came out at 1.

In the case of GGTGTTTGAA, the switch fluorescence ratio was determined as 0.972.

With CCTGAGCAGG, the switch fluorescence ratio came to 1.17. Then GCGAGGATTT, with 1; and ACTGGAAGGC, with 1.1; and ACGACGTTGG, with 1.04.
